Data: paper PMC4336329 (PLoS ONE, 2015)
The whole screen tested about 310,000 compounds, of which about 2,200 (0.71%) showed an effect of 50% or more. Effects have a minus sign here. The list shows a part of the results.

These compounds were tested against human ether-à-go-go-related gene (hERG) potassium channel (human, UniProt Q12809) (assay: primary screen, population patch clamp on CHO cells stably expressing hERG).
Chain of human ether-à-go-go-related gene (hERG) potassium channel (Q12809 whole entry, looked up): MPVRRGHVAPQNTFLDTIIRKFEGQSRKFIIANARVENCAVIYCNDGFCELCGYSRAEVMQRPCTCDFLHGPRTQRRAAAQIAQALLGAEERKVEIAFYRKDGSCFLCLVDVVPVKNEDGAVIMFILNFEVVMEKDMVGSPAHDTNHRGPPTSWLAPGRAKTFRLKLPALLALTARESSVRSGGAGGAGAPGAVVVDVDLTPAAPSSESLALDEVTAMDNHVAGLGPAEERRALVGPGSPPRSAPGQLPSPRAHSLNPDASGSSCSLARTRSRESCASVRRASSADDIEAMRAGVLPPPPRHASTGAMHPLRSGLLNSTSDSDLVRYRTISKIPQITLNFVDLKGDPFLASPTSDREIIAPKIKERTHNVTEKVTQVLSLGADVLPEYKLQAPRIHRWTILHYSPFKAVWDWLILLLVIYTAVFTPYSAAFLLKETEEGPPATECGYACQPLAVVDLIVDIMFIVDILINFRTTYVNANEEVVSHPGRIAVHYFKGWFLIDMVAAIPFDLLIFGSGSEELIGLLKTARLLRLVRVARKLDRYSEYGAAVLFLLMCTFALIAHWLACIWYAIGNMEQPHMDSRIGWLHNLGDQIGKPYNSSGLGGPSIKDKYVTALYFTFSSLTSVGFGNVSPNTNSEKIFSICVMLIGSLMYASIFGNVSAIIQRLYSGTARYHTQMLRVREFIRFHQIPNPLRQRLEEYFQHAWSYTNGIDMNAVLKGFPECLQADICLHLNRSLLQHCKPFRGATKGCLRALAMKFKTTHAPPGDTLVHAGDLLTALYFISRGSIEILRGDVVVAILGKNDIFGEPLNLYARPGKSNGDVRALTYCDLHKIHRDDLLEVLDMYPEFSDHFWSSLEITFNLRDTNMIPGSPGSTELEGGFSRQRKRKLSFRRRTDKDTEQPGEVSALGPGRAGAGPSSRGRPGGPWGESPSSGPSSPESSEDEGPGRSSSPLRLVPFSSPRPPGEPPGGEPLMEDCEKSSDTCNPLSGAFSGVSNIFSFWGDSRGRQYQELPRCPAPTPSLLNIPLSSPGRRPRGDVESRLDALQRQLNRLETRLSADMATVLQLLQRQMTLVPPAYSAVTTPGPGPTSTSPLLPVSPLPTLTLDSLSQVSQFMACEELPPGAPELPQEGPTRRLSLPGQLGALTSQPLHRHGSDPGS

SMILES	hERG current change (%, negative = inhibition) at 1uM
O=C(CCN1CCCCO1)N1CCCC(Nc2ccc(F)cc2)C1 (stereo not drawn)	13.4%
COC(=O)C(C)(C)ONC(=O)Nc1ccc(Br)cc1	-0.828%
Cc1cc(O)c(C(C)C)cc1NC(=O)c1cccc(Cl)c1	4.68%
Cc1cc(C(=O)Nn2cnc3ccccc3c2=O)ccc1[N+](=O)[O-]	20%
CC1CCc2onc(C(=O)O)c2C1 (stereo not drawn)	14.4%
Cc1ccc(NC(=O)/C(=C/c2cccs2)NC(=O)c2ccco2)cc1	17%
Cn1c(=O)c2c(ncn2CC(O)CNc2ccc(Cl)cc2)n(C)c1=O (stereo not drawn)	-0.343%
Cc1ccc(C2CC(=O)Nc3c2ccc2ccccc32)cc1[N+](=O)[O-] (stereo not drawn)	8.82%
Fc1ccc(CNc2ncnc3c2cnn3-c2ccccc2)cc1	-2.76%
CCN(CC)CCCN(Cc1cc2cc3c(cc2[nH]c1=O)OCO3)C(=S)Nc1ccccc1OC	11.2%
COc1c(N2CCN(C(=S)Nc3ccc(F)cc3)C(C)C2)c(F)cc2c(=O)c(C(=O)O)cn(C3CC3)c12 (stereo not drawn)	15.8%
CN1CCN(C(=O)c2ccc3c(c2)NC(=O)C(N2CCOCC2)S3)CC1 (stereo not drawn)	7.58%
Cc1onc(-c2ccccc2Cl)c1C(=O)NCc1cccnc1	10.3%
COc1ccc(NC(=O)COC(=O)c2cc([N+](=O)[O-])ccc2N2CCOCC2)cc1	10.5%
Cc1ccc(NC(=O)c2cc(C)n(-c3ccccc3)c2C)cc1	10.9%
CC12CC(NC(=O)N1c1cccc(C(=O)N3CCCCC3)c1)c1ccccc1O2 (stereo not drawn)	11%
CC1(C)CC2CC(C)(CN2S(=O)(=O)c2ccc(C(=O)Nc3ccc(Cl)c(S(=O)(=O)N4CCOCC4)c3)cc2)C1 (stereo not drawn)	2.28%
O=C1CSC(=Nc2ccc(Cl)cc2)N1Cc1ccco1	8.12%
Cc1cc(NC(=O)c2c(-c3c(F)cccc3Cl)noc2C)no1	5.47%
O=C(Nc1ccc2c(c1)CCC2)c1cc(S(=O)(=O)Nc2ccc(F)cc2)c(Cl)cc1Cl	3.03%
Clc1ccc(-c2nc(NCCCN3CCOCC3)c3ccccc3n2)cc1	11.5%
Cc1cc(C)c(C)c(S(=O)(=O)NCc2ccc(C(=O)N3CCCCC3)cc2)c1C	4.38%
CN(c1nc2ccccc2n2c(-c3ccco3)nnc12)S(=O)(=O)c1ccccc1	-5.43%

SMILES	hERG current change (%, negative = inhibition) at 1uM
COc1ccc(S(=O)(=O)N(CC(N)=O)C2CCCCC2)cc1Cl	10.7%
Cc1ccc(-c2nn3c(C)nnc3s2)cc1NC(=O)c1ccco1	0.0635%
O=C1C2(c3ccccc3)CN3CN(C2)CC1(c1ccccc1)C3	-1.04%
COc1cccc(NC(=O)Nc2nnc(CC(=O)NCc3ccccc3)s2)c1	5.05%
C=C1C2(C(=O)Nc3ccc(SC(F)F)cc3)CCC(C2)C1(C)C (stereo not drawn)	10.6%
Cc1ccc(N2C(=O)[C@@H]3Cc4ccccc4CN3C2=O)cc1	0.887%
COc1cc(CNCCCN2CCOCC2)c(Br)cc1OCC(=O)Nc1ccccc1C	14.4%
CCCCN(CCCC)CC(O)Cn1c2ccccc2c(=O)c2ccccc21 (stereo not drawn)	-42.7%
Cc1nnc(CN(C)C(=O)c2cc(COc3ccc(C)c(C)c3)on2)o1	12.2%
CCCCNC(=O)C1CCCN1C(=O)NC1CCCCC1 (stereo not drawn)	12.5%
CC(C)Nc1oc(Cc2cccc3ccccc23)nc1C#N	-13.3%
CN(C(=O)CN1CC=C(c2ccccc2)CC1)c1c(N)n(Cc2ccccc2)c(=O)[nH]c1=O	17.7%
CC1Cc2cc(/C(O)=C3\C(=O)C(=O)N(Cc4cccnc4)C3c3ccccc3F)ccc2O1 (stereo not drawn)	8.65%
CC(=O)Nc1c(-c2ccc(Cl)cc2)c(=O)c2ccccc2n1C	6.75%
Cc1ccc(NC(=O)CSc2nc(=O)n(CCN(C)C)c3c2CCCC3)cc1Cl	-5.68%
Cc1ccc(N2C(=O)CS/C2=N\C(=S)Nc2ccccc2)cc1	15%
CCOCCCn1c(=S)[nH]c2cc(C(=O)NC3CCCC(C)C3C)ccc2c1=O (stereo not drawn)	7.82%
O=C(c1ccccc1)C(C(=O)N1CCc2ccccc2C1)n1ccccc1=O (stereo not drawn)	4.66%
COc1ccc(CCNCCN2CCOCC2)cc1.Cl	15.1%
C=CCn1c(CC(=O)Nc2ccc(C)cc2C)nnc1SCC(=O)N1CCOCC1	14.6%
O=C(CCCNS(=O)(=O)c1cccc2nsnc12)N1CCCCC1	17.2%
Cc1ccc(C(O)c2nc3ccccc3n2C(C)C)cc1 (stereo not drawn)	16%
